GI50 and TGI data for two compounds are collected here from PubChem BioAssay (NCI).

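Assay format: 96-well plates, 48-hour exposure. Here, GI50 denotes the concentration required for 50% inhibition of growth. TGI marks complete inhibition of growth.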

In this test the test system is NCI-H322M lung. The experiment in a line: inhibition of tumour cell growth, NCI panel, 48 h.

Regarding `COC1=C[C@]23CCC(=O)N2CCc2cc4c(cc2[C@@H]3[C@@H]1OC(=O)[C@H](C)O)OCO4`, the GI50 was 18.4 µM and the TGI is greater than 52 µM.
As for `COc1ccc2c(c1)c(/C=N/Nc1ccc3ccccc3n1)cn2C`, the GI50 is 14.1 µM and the TGI was 28.2 µM.
